± gives the standard deviation of the averaged measurements. Laboratory Escherichia coli strains with one amino-acid change in an essential protein, pooled on minimal glucose agar with carbenicillin or gentamicin at twice the control MIC (plus kanamycin and chloramphenicol for the plasmids), 48 h. Fold change of barcode share against drug-free plates; higher = less susceptible. Active = above 20 in both replicates (the paper's putatively resistant). '<' = one read or none on drug, '>' = one read or none on a drug-free plate. Shares are relative, so most strains fall below 1 when a few take over. Listed are strains with at least 15 reads on both drug-free plates, and hits; most hits rest on fewer reference reads. Replicate rank correlation about 0.5. Edits are read from barcodes.
B1: msbA I535A (protein)
chain: MHNDKDLSTWQTFRRLWPTIAPFKAGLIVAGVALILNAASDTFMLSLLKPLLDDGFGKTDRSVLVWMPLVVIGLMILRGITSYVSSYCISWVSGKVVMTMRRRLFGHMMGMPVSFFDKQSTGTLLSRITYDSEQVASSSSGALITVVREGASIIGLFIMMFYYSWQLSIILIVLAPIVSIAIRVVSKRFRNISKNMQNTMGQVTTSAEQMLKGHKEVLIFGGQEVETKRFDKVSNRMRLQGMKMVSASSISDPIIQLIASLALAFVLYAASFPSVMDSLTAGTITVVFSSMIALMRPLKSLTNVNAQFQRGMAACQTLFTILDSEQEKDEGKRVIERATGDVEFRNVTFTYPGRDVPALRNINLKIPAGKTVALVGRSGSGKSTIASLITRFYDIDEGEILMDGHDLREYTLASLRNQVALVSQNVHLFNDTVANNIAYARTEQYSREQIEEAARMAYAMDFINKMDNGLDTVIGENGVLLSGGQRQRIAIARALLRDSPILILDEATSALDTESERAIQAALDELQKNRTSLVAAHRLSTIEKADEIVVVEDGVIVERGTHNDLLEHRGVYAQLHKMQFGQ
B2: msbA V550P (protein)
chain: MHNDKDLSTWQTFRRLWPTIAPFKAGLIVAGVALILNAASDTFMLSLLKPLLDDGFGKTDRSVLVWMPLVVIGLMILRGITSYVSSYCISWVSGKVVMTMRRRLFGHMMGMPVSFFDKQSTGTLLSRITYDSEQVASSSSGALITVVREGASIIGLFIMMFYYSWQLSIILIVLAPIVSIAIRVVSKRFRNISKNMQNTMGQVTTSAEQMLKGHKEVLIFGGQEVETKRFDKVSNRMRLQGMKMVSASSISDPIIQLIASLALAFVLYAASFPSVMDSLTAGTITVVFSSMIALMRPLKSLTNVNAQFQRGMAACQTLFTILDSEQEKDEGKRVIERATGDVEFRNVTFTYPGRDVPALRNINLKIPAGKTVALVGRSGSGKSTIASLITRFYDIDEGEILMDGHDLREYTLASLRNQVALVSQNVHLFNDTVANNIAYARTEQYSREQIEEAARMAYAMDFINKMDNGLDTVIGENGVLLSGGQRQRIAIARALLRDSPILILDEATSALDTESERAIQAALDELQKNRTSLVIAHRLSTIEKADEIVPVEDGVIVERGTHNDLLEHRGVYAQLHKMQFGQ
B3: msbA V550D (protein)
chain: MHNDKDLSTWQTFRRLWPTIAPFKAGLIVAGVALILNAASDTFMLSLLKPLLDDGFGKTDRSVLVWMPLVVIGLMILRGITSYVSSYCISWVSGKVVMTMRRRLFGHMMGMPVSFFDKQSTGTLLSRITYDSEQVASSSSGALITVVREGASIIGLFIMMFYYSWQLSIILIVLAPIVSIAIRVVSKRFRNISKNMQNTMGQVTTSAEQMLKGHKEVLIFGGQEVETKRFDKVSNRMRLQGMKMVSASSISDPIIQLIASLALAFVLYAASFPSVMDSLTAGTITVVFSSMIALMRPLKSLTNVNAQFQRGMAACQTLFTILDSEQEKDEGKRVIERATGDVEFRNVTFTYPGRDVPALRNINLKIPAGKTVALVGRSGSGKSTIASLITRFYDIDEGEILMDGHDLREYTLASLRNQVALVSQNVHLFNDTVANNIAYARTEQYSREQIEEAARMAYAMDFINKMDNGLDTVIGENGVLLSGGQRQRIAIARALLRDSPILILDEATSALDTESERAIQAALDELQKNRTSLVIAHRLSTIEKADEIVDVEDGVIVERGTHNDLLEHRGVYAQLHKMQFGQ
B4: msbA V550Q (protein)
chain: MHNDKDLSTWQTFRRLWPTIAPFKAGLIVAGVALILNAASDTFMLSLLKPLLDDGFGKTDRSVLVWMPLVVIGLMILRGITSYVSSYCISWVSGKVVMTMRRRLFGHMMGMPVSFFDKQSTGTLLSRITYDSEQVASSSSGALITVVREGASIIGLFIMMFYYSWQLSIILIVLAPIVSIAIRVVSKRFRNISKNMQNTMGQVTTSAEQMLKGHKEVLIFGGQEVETKRFDKVSNRMRLQGMKMVSASSISDPIIQLIASLALAFVLYAASFPSVMDSLTAGTITVVFSSMIALMRPLKSLTNVNAQFQRGMAACQTLFTILDSEQEKDEGKRVIERATGDVEFRNVTFTYPGRDVPALRNINLKIPAGKTVALVGRSGSGKSTIASLITRFYDIDEGEILMDGHDLREYTLASLRNQVALVSQNVHLFNDTVANNIAYARTEQYSREQIEEAARMAYAMDFINKMDNGLDTVIGENGVLLSGGQRQRIAIARALLRDSPILILDEATSALDTESERAIQAALDELQKNRTSLVIAHRLSTIEKADEIVQVEDGVIVERGTHNDLLEHRGVYAQLHKMQFGQ

Target: Escherichia coli (laboratory strain)
Assay: barcode share on antibiotic plates over drug-free plates; higher = less susceptible
Description: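 A pool of E. coli strains, each edited to carry one amino-acid change in an essential protein, was grown for 48 h on minimal glucose agar with or without antibiotic; strain barcodes were sequenced; mean of two replicates.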

[1] = antibiotic: carbenicillin, 2× MIC (3.1 µg/mL)
[2] = antibiotic: gentamicin, 2× MIC (MIC 0.45 µg/mL)

Protein	fold change of barcode share [1]	fold change of barcode share [2]
B1	0.373 ± 0.19	< 0.00806
B2	1.1 ± 0.62	
B3	0.3057 ± 0.0027	< 0.0127
B4	0.371 ± 0.26	< 0.0119

From the supplement of paper PMC11876631
